In PubChem BioAssay AID624417 (National Center for Advancing Translational Sciences (NCATS), 2012):
Out of some 410,000 compounds screened, about 6,400 (1.6%) were called active. The shares of active, inactive and inconclusive entries below differ from those in the screen. Calls follow the shape of the dose curve; as a rule, active = well fitted inhibition curve with a large enough effect; inconclusive = small, poorly fitted or top-dose-only effect; inactive = no such curve, though single readings can be large or run the other way. Potencies of inconclusive entries are left out as doubtful fits.

Target: Glucagon-like peptide 1 receptor (Homo sapiens) (UniProt P43220)
Assay: qHTS of GLP-1 Receptor Inverse Agonists (Inhibition Mode); also: nearly all actives have a fitted effect of over 55% in size
Conditions: HEK293 GLP-1R CRE-luciferase, luminescence, 24 h, GLP-1R form is constitutively active; activity change, negative = inhibition: at 38.3 µM (top of the series) unless noted
Summary of the method: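 HEK293 cells stably co-expressing constitutively active GLP-1R and a cAMP-responsive luciferase reporter were seeded in DMEM with 10% Nu serum, given compounds after 12 h, and incubated 24 h at 37 deg C. Luminescence was then read.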
% is scaled to controls: 0 for no effect and ±100 for the full control effect; potency is read from the fitted curve at half-maximal effect; tags tell the direction and shape of the fitted curve.

UniProt P43220, sequence (P43220 whole entry, looked up): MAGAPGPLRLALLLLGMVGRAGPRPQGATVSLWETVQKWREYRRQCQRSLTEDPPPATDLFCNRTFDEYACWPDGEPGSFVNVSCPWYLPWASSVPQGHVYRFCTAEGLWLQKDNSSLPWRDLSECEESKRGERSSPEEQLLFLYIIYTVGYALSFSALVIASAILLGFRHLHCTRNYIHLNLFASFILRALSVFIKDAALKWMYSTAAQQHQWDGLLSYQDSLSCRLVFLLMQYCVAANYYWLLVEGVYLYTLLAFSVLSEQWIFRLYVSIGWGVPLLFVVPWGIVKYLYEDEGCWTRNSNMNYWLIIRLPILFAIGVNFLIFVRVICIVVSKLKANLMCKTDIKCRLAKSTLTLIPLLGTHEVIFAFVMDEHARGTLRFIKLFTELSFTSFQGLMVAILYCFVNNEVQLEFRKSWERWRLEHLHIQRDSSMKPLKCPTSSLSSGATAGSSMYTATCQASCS

Row | Structure (SMILES) | Potency | activity change, negative = inhibition
1 | CC(C)(C)CC(C)(C)c1ccc(O)c(Cc2ccc(Cl)cc2Cl)c1 | inconclusive [inhibitor, partial curve, poor fit] | 
2 | COc1ccc(NC(=O)c2cc(-c3ccccc3)nc3c2cnn3C(C)C)c(OC)c1 | inconclusive [inhibitor, partial curve, poor fit] | 
3 | Clc1ccc(NCc2cccnc2)c(Cl)c1 |  | inconclusive: -60.3% [inhibitor]
4 | Cc1ccc(F)c([C@H]2C3C=CCC(c4ccccc4)C3C(=O)N2Cc2ccccc2)c1 (stereo partly specified) | inconclusive [inhibitor, partial curve, poor fit] | 
5 | CN(C)c1ccc(C(=S)N2CCN(Cc3ccccc3)CC2)cc1 | active: 11.2 µM | 
6 | COc1ccc(CCn2c(C)cc(C(=O)COC(=O)c3ccc(NC(=O)CC#N)cc3)c2C)cc1 | inconclusive [inhibitor, single point] | 
7 | CC(CCc1ccccc1)NC(=O)c1ccccc1Cl (stereo unspecified) | inconclusive [inhibitor, single point] | 
8 | COc1cc(C2c3c(-c4cc(C)ccc4O)n[nH]c3C(=O)N2Cc2cccnc2)cc(OC)c1OC (stereo unspecified) | inactive | 
9 | CCN(CC)c1ccc(/C=C/c2ccc3ccc(OC)cc3[n+]2CC)cc1 | inconclusive [inhibitor, full curve] | 
10 | O=C(C[C@H]1C/C=C\C[C@H](NC(=O)OCC2c3ccccc3-c3ccccc32)C(=O)O[C@H](c2ccccc2)CNC1=O)N[C@H](CO)Cc1ccccc1 | inconclusive [inhibitor, full curve, poor fit] | 
11 | CSCCC(NC(=O)c1ccccc1Cl)C(=O)N1CCN(C(c2ccccc2)c2ccccc2)CC1 (stereo unspecified) | inconclusive [inhibitor, partial curve, poor fit] | 
12 | CCn1cc2nc(SCC(=O)Nc3cc(OC)ccc3OC)n(Cc3ccc(Cl)cc3)c(=O)c2n1 | inactive | 
13 | CN(C)S(=O)(=O)c1ccc2c(c1)N(CC(=O)Nc1cccc(C(F)(F)F)c1)C(=O)CS2 | inconclusive [inhibitor, partial curve, poor fit] | 
14 | CC(C)Oc1ccc(F)cc1-c1cc(C(=O)NCc2ccc(C(F)(F)F)cc2)[nH]n1 | inactive | 
15 | COC(=O)c1c(-c2cccc(C)c2)csc1N | inconclusive [inhibitor, single point] | 
16 | Cc1onc(-c2ccccc2Cl)c1C(=O)Oc1ccccc1F | inactive | 
17 | CC1(C)CC(NC(=O)c2sc3cc(Cl)ccc3c2Cl)CC(C)(C)N1 | inconclusive [inhibitor, full curve, poor fit] | 
18 | Cn1ccnc1C1CCCCN1Cc1nc(Cc2cccc(C(F)(F)F)c2)no1 (stereo unspecified) | inconclusive [inhibitor, single point] | 
19 | COc1cc(C(=O)NC(c2ccccc2Cl)c2cc(Cl)c3cccnc3c2O)cc(OC)c1OC (stereo unspecified) | inconclusive [inhibitor, full curve, poor fit] | 
20 | COc1cccc(C2CCCN2Cc2nc(-c3sccc3C)oc2C)c1 (stereo unspecified) | inconclusive [inhibitor, partial curve, poor fit] | 
21 | COc1ccc(-c2cn3cc(Cl)ccc3n2)cc1OC | inactive | 

Row | Structure (SMILES) | Potency | activity change, negative = inhibition
22 | Cc1ccc(-n2nc3c(N4CCC(C(=O)NCc5ccccc5C)CC4)nnc(C)c3c2C)cc1 | inconclusive [inhibitor, partial curve, poor fit] | 
23 | CN(CC(=O)Nc1ccccc1Br)C(=O)C(Cc1ccccc1)NC(=O)c1ccccc1 (stereo unspecified) | inconclusive [inhibitor, single point] | 
24 | N#C/C(=N\Nc1ccc(S(=O)(=O)N2CCCCC2)cc1)C(N)=S | inconclusive [inhibitor, partial curve, poor fit] | 
25 | Cc1ccc(Cl)cc1N1CCN(C(=O)CCS(=O)(=O)c2ccc3c(c2)NC(=O)CO3)CC1 | inconclusive [inhibitor, single point] | 
26 | CCOc1ccc(NC(=O)Cn2c(=O)n(CC3CCC(C(=O)NCCc4ccccc4)CC3)c(=O)c3ccccc32)cc1 (stereo unspecified) | inactive | 
27 | CCCSc1ncc(Cl)c(C(=O)Nc2sc(C(C)=O)c(C)c2C(=O)OCC)n1 | inactive | 
28 | CCOc1ccc(NC(=S)Nc2ccccc2C2(C)CC2)cc1 | inconclusive [inhibitor, single point] | 
29 | O=C(Cc1ccc(Cl)cc1)NCC(c1cccs1)S(=O)(=O)c1ccccc1 (stereo unspecified) | inconclusive [inhibitor, single point] | 
30 | CCOC(=O)N1CCN(C(=O)/C(=C/c2ccc(Br)cc2)NC(=O)c2ccc(OC)cc2)CC1 | inconclusive [inhibitor, partial curve, poor fit] | 
31 | Clc1ccc(COn2c(-c3ccccc3)nc3ccccc32)cc1 | inconclusive [inhibitor, single point] | 
32 | O=C(/C=C/c1ccc(Cl)cc1Cl)Nc1ccc(CN2CCOCC2)cc1 | inconclusive [inhibitor, partial curve, poor fit] | 
33 | OC(c1ccccc1)c1nc(-c2cccc3cccnc23)cs1 (stereo unspecified) | inconclusive [inhibitor, partial curve] | 
34 | C[C@H]1CN(c2ccc(Br)cc2)C(=O)[C@@H]1CC(=O)Nc1ccccc1 | inconclusive [inhibitor, single point] | 
35 | CCN(CC)c1cc(C)c2cc(NC(=O)c3cc(OC)cc(OC)c3)ccc2n1 | inconclusive [inhibitor, partial curve, poor fit] | 
36 | N#C/C(=C\c1cccn1-c1ccccc1)C(=O)NC1CCCCC1 | inconclusive [inhibitor, full curve, poor fit] | 
37 | CCc1ccc2[nH]c(=O)c(CN(Cc3ccccc3OC)Cc3nnnn3Cc3ccco3)cc2c1 | inconclusive [inhibitor, partial curve, poor fit] | 
38 | Cc1cccc(CCNS(=O)(=O)c2ccc3c(c2)NC(=O)C(C)S3)c1 (stereo unspecified) | inconclusive [inhibitor, single point] | 
39 | Cc1ccc(Oc2ccc(C(F)(F)F)cc2[N+](=O)[O-])c([N+](=O)[O-])n1 | inactive | 
40 | Cc1csc2sc(-c3ccnc(SCC(=O)NCc4ccccc4)n3)c(C)c12 | inconclusive [inhibitor, full curve, poor fit] | 
41 | CC1CCCN(c2nc3nonc3nc2Nc2ccccc2F)C1 (stereo unspecified) | inconclusive [inhibitor, single point] | 
42 | Cc1cccc(C(=O)Nc2c(C(=O)N3CCN(c4ccc(F)cc4)CC3)oc3ccccc23)c1 | inconclusive [inhibitor, single point] | 

Row | Structure (SMILES) | Potency | activity change, negative = inhibition
43 | Cc1ccc(C(=O)Nc2cc3ccccc3oc2=O)cc1 | inconclusive [inhibitor, full curve, poor fit] | 
44 | CC1(c2ccc3ccccc3c2)NC(=O)N(CC(=O)N2CCCC(C(F)(F)F)C2)C1=O (stereo unspecified) | inconclusive [inhibitor, partial curve] | 
45 | O=S(=O)(Cc1ccccc1Cl)NCCc1ccc(F)cc1 | inconclusive [inhibitor, single point] | 
46 | Cc1nc2ccccc2n1CC(O)COc1ccc(Br)cc1 (stereo unspecified) | inconclusive [inhibitor, partial curve, poor fit] | 
47 | COc1cccc(CNC(=O)CCC2CCCN(C(=O)c3cccc(Cl)c3)C2)c1 (stereo unspecified) | inactive | 
48 | c1ccc(-c2nc3c(ccc4ccccc43)[nH]2)nc1 | inconclusive [inhibitor, full curve, poor fit] | 
49 | O=C(Nc1ccc(N2CCOCC2)c(Cl)c1)c1cc(F)c(F)cc1Cl | inconclusive [inhibitor, partial curve, poor fit] | 
50 | CCCOc1ccc(/C(O)=C2\C(=O)C(=O)N(c3ccccn3)C2c2ccccc2F)cc1C (stereo unspecified) | inconclusive [inhibitor, full curve, poor fit] | 
51 | CC(C)(C)c1ccc(C(=O)N2CCN(C(=O)C3CCCCC3)CC2)cc1 | inconclusive [inhibitor, partial curve, poor fit] | 
52 | CCOc1ccc(-c2c(C(=O)N/N=C/c3ccc(C)s3)nnn2-c2nonc2N)cc1 | active: 11.2 µM | 
53 | O=C(CCl)N(Cc1ccccc1)c1ccccc1 | inconclusive [inhibitor, partial curve, poor fit] | 
54 | COc1ccc2c(OC)cc(-c3ccccc3)nc2c1 | inconclusive [inhibitor, single point] | 
55 | Cc1ccc(N2C(=O)CC(N(CCc3ccccc3)C(=S)Nc3ccc(N(C)C)cc3)C2=O)cc1 (stereo unspecified) | active: 3.98 µM | 
56 | COc1ccc(-c2cn3c(n2)sc2cc(C(=O)NC(C)C45CC6CC(CC(C6)C4)C5)ccc23)cc1 (stereo unspecified) | inactive | 
57 | COc1ccc(CC(=O)NCCS(=O)(=O)N2CCN(c3ccccc3OC)CC2)cc1 | inconclusive [inhibitor, partial curve, poor fit] | 
58 | O=C1N=C(N2CCCC2)S/C1=C\c1cccc(Br)c1 | inconclusive [inhibitor, single point] | 
59 | CCN1CCN(c2ccc(S(=O)(=O)N3CCCCC3)cc2NC(=O)/C=C/c2ccc(F)cc2)CC1 | inconclusive [inhibitor, single point] | 
60 | N=c1sccn1CC(=O)Nc1cc(Cl)ccc1Oc1ccccc1 | inconclusive [inhibitor, partial curve, poor fit] | 
61 | COCCOc1cc(-n2cccc2)c(Cl)cc1Cl | inconclusive [inhibitor, partial curve, poor fit] | 
